50 molecules from PubChem BioAssay AID1645882 (National Center for Advancing Translational Sciences (NCATS), 2021) can be followed below.

Out of some 16,000 compounds screened, about 120 (0.75%) were called active. Roughly 4% stayed inconclusive and do not appear here. Calls come from the whole dose curve; as a rule, active = well fitted inhibition curve with a large enough effect; inconclusive = small, poorly fitted or top-dose-only effect; inactive = no such curve, though single readings can be large or run the other way. Some of the results follow. *1 amine or outer side, *2 acyl side, *3 side chain or, on linkers, in order; H or OH if unused. Where a SMILES comes first, the peptide text is derived from it. Bridges are numbered along the chain shown (N, C = ends). [ ]: non-standard residue; d: D form. The star is where a group is joined. X6 = NC1=N[C@@H](O)C[C@H]([C@H](N[*:1])C(=O)[*:2])N1; ΔAla(3-NHCONH2) = NC(=O)NC=C(N)C(=O)O; β3hOrn = NCCC[C@H](N)CC(=O)*; Dap = NC[C@H](N)C(=O)O

Chain of UniProt O95398 (O95398 whole entry, looked up): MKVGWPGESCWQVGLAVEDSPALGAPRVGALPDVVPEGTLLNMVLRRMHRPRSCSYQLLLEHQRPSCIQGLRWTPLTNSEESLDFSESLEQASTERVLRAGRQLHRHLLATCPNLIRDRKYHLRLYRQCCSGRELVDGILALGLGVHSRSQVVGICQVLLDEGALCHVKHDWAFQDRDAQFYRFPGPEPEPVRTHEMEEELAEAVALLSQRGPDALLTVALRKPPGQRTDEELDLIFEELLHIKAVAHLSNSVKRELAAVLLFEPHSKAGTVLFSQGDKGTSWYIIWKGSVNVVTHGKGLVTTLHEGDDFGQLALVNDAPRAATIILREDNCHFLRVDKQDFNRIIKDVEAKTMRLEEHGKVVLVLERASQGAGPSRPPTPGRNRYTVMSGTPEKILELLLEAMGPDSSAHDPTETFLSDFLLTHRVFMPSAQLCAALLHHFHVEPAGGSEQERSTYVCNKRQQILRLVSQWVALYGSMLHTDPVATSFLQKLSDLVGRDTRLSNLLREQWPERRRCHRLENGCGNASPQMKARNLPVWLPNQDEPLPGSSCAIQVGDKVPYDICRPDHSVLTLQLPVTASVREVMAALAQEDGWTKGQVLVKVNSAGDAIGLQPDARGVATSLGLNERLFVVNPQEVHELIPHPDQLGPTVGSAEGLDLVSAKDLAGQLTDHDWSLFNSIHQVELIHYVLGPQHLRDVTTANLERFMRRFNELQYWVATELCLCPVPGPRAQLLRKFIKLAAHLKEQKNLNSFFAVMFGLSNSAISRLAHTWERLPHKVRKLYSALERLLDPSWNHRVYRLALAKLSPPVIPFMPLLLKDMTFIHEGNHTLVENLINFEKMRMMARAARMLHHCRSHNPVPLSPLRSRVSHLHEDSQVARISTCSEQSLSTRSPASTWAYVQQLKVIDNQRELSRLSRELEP

The experiment has as its target Rap guanine nucleotide exchange factor 3 (Homo sapiens) (UniProt O95398). As to the kind of experiment: Validation qHTS for antagonist of cAMP-regulated guanine nucleotide exchange factor 3 (EPAC1). Note: nearly all actives have a fitted effect of over 75% in size. As to conditions: EPAC1 Rap1B-BODIPY-GDP exchange, fluorescence; series mostly up to 150 µM; activity change, negative = inhibition: at the top concentration. An outline of the steps:
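EPAC1 (100 nM) mixed with 250 nM RAP1B-BODIPY-GDP and 50 uM GDP; compounds in concentration series, 5 min at room temperature. Fluorescence (ex 480/em 540 nm) read every 5 min for 30 min; normalized to ATA control and DMSO.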
For orientation: In qHTS, concentration-response curves come from the screen itself.
For the molecule `CC(C(=O)O)c1ccc(N2Cc3ccccc3C2=O)cc1` (stereo not given), the “activity change, negative = inhibition” value was inactive: 16.8%.
Take `CO[C@@]12[C@H](COC(N)=O)C3=C(C(=O)C(C)=C(N)C3=O)N1C[C@@H]1N[C@@H]12`: the “activity change, negative = inhibition” value was inactive: 1.16%.
Turning to `NCCC[C@H](N)CC(=O)N[C@H]1CNC(=O)[C@H]([C@H]2C[C@H](O)N=C(N)N2)NC(=O)C(=CNC(N)=O)NC(=O)[C@H](CO)NC(=O)[C@H](CO)NC1=O` (β3hOrn-[Dap]SS[ΔAla(3-NHCONH2)][X6]; lactam 1-C), the “activity change, negative = inhibition” value is inactive: 23.2% [at 39.6 µM].
The same measure for `COc1ccccc1CCn1c(=O)c(-c2cn(C)c3ccccc23)nc2cncnc21`: inactive: -16.4%; for `O=C(c1ccccc1)C(c1ccccc1)[n+]1csc2ccccc21` (stereo not given): inactive: 8.41%.
Take `CC(NN)c1ccccc1` (stereo not given): the “activity change, negative = inhibition” value was inactive: 21.6%.
The same measure for `COc1cc(-c2noc(C)c2/C=C/c2ccc(N)cc2)cc(OC)c1OC`: inactive: -13.7%; for `COc1ccc(C(=O)N2CCC[C@@]3(CCN(C)C3)C2)cc1`: inactive: 20.8%.
The same measure for `CN1CCCN(C(=O)[C@@H]2C[C@@H](Sc3nc4ccccc4[nH]3)CN2Cc2ccc(OC(F)(F)F)cc2)CC1`: inactive: -2.69%.
In the case of `C#C[C@@]1(O)CCC2C3CCc4cc(O)ccc4C3CC[C@@]21C` (stereo not given in full), the “activity change, negative = inhibition” value is inactive: 16.2%.
As to `Cc1c(C(=O)N2CCCC(C)C2)sc2ncnc(NCCN3CCCCC3)c12` (stereo not given), the “activity change, negative = inhibition” value was inactive: 19.3%.
As to `N[C@]1(C(=O)O)CCc2cc(C(=O)O)ccc21`, the “activity change, negative = inhibition” value is inactive: -9.44%.
The same measure for `COC(=O)C1=C(C)NC(C)=C(C(=O)OCCCN2CCC(c3ccccc3)(c3ccccc3)CC2)[C@H]1c1cccc([N+](=O)[O-])c1`: inactive: -15.4%; for `Cc1ccc(Cl)c(Nc2ccccc2C(=O)O)c1Cl`: “inactive”.
Turning to `CC(C)C[C@@H](CO)N1CCN(Cc2ccccc2)CCC1=O`, the activity change, negative = inhibition entry was “inactive”.
Regarding `Cn1cccc1C(=O)N1CCC[C@@]2(CCN(C(c3ccccc3)c3ccccc3)C2)C1`, the “activity change, negative = inhibition” value is inactive: 0.23%.
The same measure for `COc1ccc(OC)c(C(=O)N2CCc3c(cnc(C)c3CNS(=O)(=O)N(C)C)C2)c1`: inactive: 2.11%; for `O=C(NCCO[N+](=O)[O-])c1cccnc1`: inactive: 21.8%.
The same measure for `CCN1CCN(C(=O)N[C@@H](C(=O)N[C@@H]2C(=O)N3C(C(=O)O)=C(CSc4nnnn4C)CS[C@H]23)c2ccc(O)cc2)C(=O)C1=O`: inactive: 17.6%; for `CN(C)CCOc1ccc(/C(=C(/CCCl)c2ccccc2)c2ccccc2)cc1`: inactive: -1.85%; for `COCCn1c(=O)c(-c2cccs2)nc2cnc(N3CCOCC3)nc21`: inactive: 30.5%.
With `CCCn1c(=O)c2c(ncn2C)n(CCC)c1=O`, the activity change, negative = inhibition entry was “inactive”.
In the case of `COc1cccc(CNC(=O)c2c(OC)cc(=O)n3c2CCN(C(=O)c2cc(F)cc(F)c2)CC3)c1` it was inactive: 6.11%.
In the case of `C[C@H]1C[C@H]2[C@@H]3CCC4=CC(=O)C=C[C@]4(C)[C@@]3(F)[C@@H](O)C[C@]2(C)[C@@]1(O)C(=O)CO` it was inactive: 7.1%; in that of `COc1cccc(Cn2c(=O)c(CCc3ccccc3)nc3cnc(OC)nc32)c1`, inactive: 15%.
On to `CC(C)C1=CC2=CC[C@@H]3[C@](C)(CCC[C@@]3(C)C(=O)O)[C@H]2CC1`, for which the “activity change, negative = inhibition” value was inactive: 18.1%.
For `COc1cccc(-c2cncnc2Nc2ccccc2)c1`, the “activity change, negative = inhibition” value was inactive: 18.4%.
In the case of `COc1ccccc1CNc1cc(-c2ccccc2Cl)ncn1` it was inactive: -19.8%; in that of `CN(C)c1ncc2nc(-c3cccs3)c(=O)n(C[C@H]3CCCO3)c2n1`, inactive: 33.1%.
For `CNC(=O)[C@H](Cc1c[nH]c2ccccc12)NC(=O)[C@@H](CC(=O)NO)CC(C)C`, the activity change, negative = inhibition result was “inactive”.
`COc1cc(O)c2c(=O)cc(-c3ccccc3)oc2c1`: the “activity change, negative = inhibition” value was inactive: 11.6%.
In the case of `CC(C)C[C@@H](COc1ccccc1)N1CCN(CCc2ccccc2)CCC1=O`, the “activity change, negative = inhibition” value was inactive: -6.14%.
With `COc1ccc(OC)c(-c2ccc(O)c(CN3CCc4c([nH]c5ccccc45)C3)c2)c1`, the “activity change, negative = inhibition” value was inactive: -6.49%.
`c1ccc(CNc2ccnc(-c3ccoc3)n2)cc1`: the “activity change, negative = inhibition” value was inactive: 23.9%.
For `CC(=O)OCC(=O)[C@@]1(O)CC[C@H]2[C@@H]3CCC4=CC(=O)CC[C@]4(C)C3=CC[C@@]21C`, the “activity change, negative = inhibition” value is inactive: 18.9%.
For the molecule `COC(=O)CNC(=O)C(=O)OC`, the activity change, negative = inhibition is inactive: 22.7% [at 15.3 µM].
As to `COCCn1c(=O)c(-c2ccc(F)cc2)nc2cnc(Oc3ccccc3)nc21`, the “activity change, negative = inhibition” value is inactive: 15.1%.
As for `COC(=O)[C@H]1Cc2c([nH]c3ccccc23)CN1C(=O)COc1ccc2c(C)cc(=O)oc2c1`, the “activity change, negative = inhibition” value is inactive: -0.141%.
On to `COC(=O)c1cn([C@@H]2C[C@@H](C(=O)N3CCCCCC3)N(Cc3cc4ccccc4s3)C2)nn1`, for which the “activity change, negative = inhibition” value was inactive: 12.2%.
The same measure for `C=Nc1ccc(/C=C/c2ccnc3ccccc23)cc1`: inactive: 15.3%; for `CN(C)c1nc(-c2ccccc2C(F)(F)F)nc2ccccc12`: inactive: 11.8%.
Turning to `Oc1ccc(OCc2ccccc2)cc1`, the “activity change, negative = inhibition” value is inactive: 1.65% [at 75.8 µM].
Regarding `COc1cc(NS(C)(=O)=O)ccc1Nc1c2ccccc2nc2ccccc12`, the activity change, negative = inhibition entry was “inactive”.
In the case of `CN1c2c(nc(N)[nH]c2=O)NCC1CNc1ccc(C(=O)NC(CCC(=O)O)C(=O)O)cc1` (stereo not given), the “activity change, negative = inhibition” value was inactive: 11.9%.
Take `CCN1CCC[C@H]1CNC(=O)c1c(OC)ccc(Br)c1OC`: the activity change, negative = inhibition result was “inactive”.
For `O=C(C[N+]12CCCc3cccc(c31)CCC2)c1ccc2ccccc2c1`, the “activity change, negative = inhibition” value is inactive: 7.52%.
The same measure for `C#CCCCCCCCCCCCc1ccco1`: inactive: 4.7%; for `CC(NC(=O)c1cc(F)ccc1F)c1nnc2n1CCN(Cc1ccco1)CC2` (stereo not given): inactive: 9.66%.
Regarding `O=C1C2CC3CC1CC(O)(C3)C2`, the “activity change, negative = inhibition” value is inactive: -7.38%.
In the case of `O=[n+]1ccn([O-])c2ccccc21`, the “activity change, negative = inhibition” value was inactive: 12.2%.
